Laboratory results reported in PubChem BioAssay AID2202238 (Ras Initiative Chemistry Research Team, Frederick National …, 2025).
This is one part of the list. Shown are side measurements of this screen, not its main read-out; they come without a call.

Target: GTPase KRas (Homo sapiens) (UniProt P01116)
Assay: Fragment capture on engineered cysteines, share of protein labelled (AID 2202238)
Set-up: protein at 5 µM with 500 µM competing thiol for 1.5 h
Conditions: KRAS G12D cysteine mutants, disulfide tethering, MALDI-TOF labeling, stronger effect = higher value, fragment at 500 µM
[1] = measured here: G60C mutant labeling
[2] = measured here: G75C mutant labeling
[3] = measured here: H94C mutant labeling
[4] = measured here: I36C mutant labeling
[5] = measured here: L120C mutant labeling
[6] = measured here: M67C mutant labeling
[7] = measured here: M72C mutant labeling
[8] = measured here: N26C mutant labeling
[9] = measured here: N86C mutant labeling
[10] = measured here: P121C mutant labeling
[11] = measured here: S122C mutant labeling
[12] = measured here: S136C mutant labeling

Sequence of UniProt P01116 (P01116 whole entry, looked up, the tested form may be a part): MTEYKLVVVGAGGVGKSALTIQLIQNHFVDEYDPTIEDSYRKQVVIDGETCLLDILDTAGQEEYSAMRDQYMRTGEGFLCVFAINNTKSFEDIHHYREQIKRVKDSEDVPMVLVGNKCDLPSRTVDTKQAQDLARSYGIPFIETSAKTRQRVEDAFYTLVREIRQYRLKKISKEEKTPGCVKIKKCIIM

Row | Compound | percent labeling [1] [%] | percent labeling [2] [%] | percent labeling [3] [%] | percent labeling [4] [%] | percent labeling [5] [%] | percent labeling [6] [%] | percent labeling [7] [%] | percent labeling [8] [%] | percent labeling [9] [%] | percent labeling [10] [%] | percent labeling [11] [%] | percent labeling [12] [%]
1 | CC1(C(=O)NCCS)CC(c2ccccc2)=NO1 (stereo not given) | 23.2 | 9.9 | 22.5 | 19.8 | 15.5 | 39.5 | 19.5 | 32.6 | 7.4 | 39.2 | 12.7 | 54.6
2 | CC(C)c1onc(-c2ccccc2)c1C(=O)NCCS | 49.9 | 11.7 | 25.7 | 10.2 | 18.1 | 25.1 | 27.7 | 30.2 | 11.7 | 20.4 | 18.7 | 31.6
3 | Cc1c(C(=O)NCCS)oc(=O)c2ccccc12 | 18.3 | 8.9 | 9.3 | 7.6 | 11.9 | 10 | 40.2 | 25.6 | 8.4 | 42.7 | 9.1 | 21.2
4 | O=C(CCS)Nc1ccc(OC(F)F)nc1 | – | 16.7 | 33 | 35.5 | 19.2 | 23.8 | 38 | – | 20 | 29.6 | 28.7 | 44.6
5 | COc1ncc(C(=O)NCCS)c(C(F)F)n1 | 31.6 | 13.7 | 31.2 | 24.9 | 30.6 | 29.6 | 27.7 | 36.8 | 27.5 | 33.8 | 30.1 | 41.7
6 | O=C(CNC(=O)c1cccc2[nH]ccc12)NCCS | 35.7 | 21.5 | 30.5 | 25.8 | 69.8 | 55.2 | 43.7 | 38.3 | 32.7 | 35.3 | 55 | 41.9
7 | O=C(CCS)NCCn1ccn2nccc2c1=O | – | 7.6 | 23.3 | 38 | 29.7 | 29.7 | 12.1 | – | 21 | 35.8 | 29.3 | 45.6
8 | O=C(NCCS)c1cccc2nc(C(F)F)sc12 | 33.4 | 25.8 | 14.2 | 11.6 | 21.6 | 20.2 | 58.2 | 32.3 | 16.2 | 16 | 7.1 | 25.6
9 | Cn1cc(C(=O)NCCS)c(-c2coc3ccccc23)n1 | 32.4 | 18.5 | 22 | 13.7 | 26.9 | 24 | 49.6 | 31.8 | 12.1 | 17.1 | 12.6 | 24.2
10 | O=C(CCS)Nc1ccc2nc[nH]c(=O)c2c1 | – | 13.8 | 24.8 | 42.8 | 22.9 | 23.9 | 30.1 | – | 42.8 | 25.6 | 24.7 | 52.9
11 | O=C(NCCS)C1(c2cccc(Br)c2)CCOCC1 | 43.6 | 23 | 25.5 | 14.6 | 28.6 | 25 | 31.6 | 28.5 | 15.3 | 18.9 | 13.6 | 40.3
12 | CC(C(=O)NCCS)N1CCC(Cc2ccccc2)CC1 (stereo not given) | 41.2 | 25.9 | 32.1 | 30.1 | 25.2 | 56.3 | 27.9 | 37.9 | 15.9 | 24.1 | 17.2 | 32.8
13 | O=C(CCS)Nc1cccc(Cn2nc3ccccn3c2=O)c1 | – | 11.5 | 27.9 | 35.6 | 19 | 27.2 | 26.7 | – | 16 | 19.9 | 17.1 | 36.6
14 | O=C(CCS)N1CCN(C(=O)Cc2cccc(F)c2)CC1 | – | 12.4 | 31.7 | 37.8 | 31.6 | 42.1 | 19.7 | – | 19 | 36.8 | 36.9 | 63
15 | Cc1cc(CN(C(=O)CCS)C2CC2)cc(S(N)(=O)=O)c1C | – | 20.6 | 43.5 | 31.2 | 29 | 55.5 | 36.8 | – | 25 | 26.7 | 24.2 | 54.8
16 | CC(C)c1noc(C2(NC(=O)CCS)CCOCC2)n1 | – | 8.4 | 36.8 | 39 | 31.8 | 36 | 18.9 | – | 29.7 | 34.5 | 35.3 | 54.5
17 | CC(C)c1nn(C)c2sc(C(=O)NCCS)cc12 | 28.6 | 14.8 | 21.9 | 16.1 | 22.4 | 18.2 | 38.4 | 36.6 | 15.1 | 15.7 | 15.3 | 32.4
18 | O=C(NCCS)c1csc(-c2cc(Br)cs2)n1 | 18.4 | 17.3 | 9 | 4.5 | 9.5 | 5.3 | 41.2 | 17.7 | 8 | 7.9 | 3.4 | 7.3
19 | CCc1ncncc1C(=O)NCCS | 36.4 | 25 | 37.3 | 30.4 | 31.2 | 31.8 | 24.6 | 38.7 | 28.8 | 36.3 | 34.5 | 45.7
20 | O=C(NCCS)C1COCCN1CC(F)(F)F (stereo not given) | 23.6 | 10.8 | 30.8 | 20.1 | 36.2 | 31.5 | 19.5 | 34.5 | 33.5 | 32.5 | 38 | 39.2
21 | O=C(CCS)NCc1ccn(CC(F)F)n1 | – | 8.9 | 24.3 | 36.1 | 26.9 | 27.7 | 12.6 | – | 19.2 | 25.2 | 35.4 | 45.6
22 | O=C(NCCS)c1ccn(CCC(F)(F)F)n1 | 29.9 | 17.7 | 36.2 | 23.4 | 51 | 26.3 | 32.1 | 39.5 | 29 | 30.4 | 34.2 | 40.5
23 | Cc1nn(Cn2ccc(C(=O)NCCS)n2)c(C)c1Br | 33.8 | 25.8 | 18.5 | 17.1 | 28.9 | 26.7 | 38.4 | 33.4 | 15.1 | 17.3 | 19.6 | 25.7
